This is one part of the list. Shown are side measurements of this screen, not its main read-out; they come without a call. Compounds called inactive in the main read-out are mostly missing here.

A word on the inhibition: it is the drop in the measured response relative to a control, in per cent.

The assay is described as follows: beta-lactam sensitization of Mtb H37Rv, H37Rv (AID 434955).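 Further: growth measured after seven days incubation then overnight dye step; 0% = bacteria only wells and 100% = bacteria with antibiotic.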 The settings on record: M. tuberculosis H37Rv growth with meropenem, percent inhibition; measured here: primary screen without meropenem; at 25 µM.
As to `Cc1cc(S(=O)(=O)N2CCCC2)c(C)s1`, the inhibition was determined as 3.51%.
With `CC1(C)CN=C(Nc2nc3ccccc3s2)S1` the figure was 36.7%.
For the molecule `COCCNC(=O)c1cc2cc(Br)cc(OC)c2oc1=O`, the inhibition is -6.39%.
The figure for `CCOc1ccc2nc(N(CCN(C)C)C(=O)c3cc4ccccc4cc3OC)sc2c1` is 49.6%.
The figure for `COc1ccc(C(=O)OCC(=O)c2ccccc2)cc1S(=O)(=O)N1CCOCC1` is 5.04%.
With `O=C(CSc1nnc(CNC(=O)c2cccc(C(F)(F)F)c2)o1)NCc1ccco1` the figure was 2.16%; with `C/C(=N\O)C(C)(C)NC(=O)Nc1ccc(Cl)cc1`, -3.12%.
Regarding `CCOC(=O)C(NC(=O)c1ccc(OC)cc1)(N1CCOCC1)C(F)(F)F` (configuration not stated), the inhibition was -4.78%.
With `Cc1ccc(NC(=O)C2CCCN2S(=O)(=O)c2ccc3c(c2)CCC(=O)N3)cc1Cl` (configuration not stated) the figure was -1.14%.
The figure for `Cc1ccccc1NS(=O)(=O)c1ccc(C)c(C(=O)N2CCOCC2)c1` is -2.74%; for `CCn1cc(CN2CCC(n3nccc3NC(=O)Cc3ccccc3)CC2)cn1` it is 5.99%; for `COc1ccc(Nc2nc(N3CCCCC3)nc(N3CCCCC3)n2)c(OC)c1` it is -2.26%.
For the molecule `Cc1ccc(/C=N/NC(=O)c2cccnc2)s1`, the inhibition came to 4.58%.
For the molecule `CCOC(=O)c1sc(NC(=O)c2ccoc2C)c(C(N)=O)c1C`, the inhibition stood at 4.12%.
The figure for `COC(=O)c1ccc(Oc2c(C)oc3c(CN4CCN(C)CC4)c(O)ccc3c2=O)cc1` is -1%; for `CCc1cc(CNC(=O)C2CCC(=O)N(CCc3ccc(OC)cc3)C2)on1` (configuration not stated) it is -3.22%.
For the molecule `CN(c1ccc(C(=O)Nc2cccc(O)c2)cc1)S(=O)(=O)c1ccccc1`, the inhibition worked out at 6.66%.
With `COc1cccc(/C=N/n2c(COc3ccccc3)n[nH]c2=S)c1O` the figure was -2.85%; with `O=C(NCCCN1CCOCC1)c1ccc2c(=O)n(CCc3ccccc3)c(=O)[nH]c2c1`, 8.29%.
With `Cc1[nH]nc2c1C(CCc1ccccc1)C(C#N)=C(N)O2` (configuration not stated) the figure was 7.65%; with `COc1ccc(OC)c(CCNC(=O)CS(=O)(=O)Cc2nc(-c3ccccc3C)oc2C)c1`, -10.5%; with `Cc1cccc(-n2ncc3c2CCCC3NC(=O)C2=CC(=O)CC(C)(C)O2)c1C` (configuration not stated), -0.85%.
The figure for `O=C(CNC(=O)c1ccc(Br)cc1)NCC(=O)OCc1ccc(Cl)cc1` is 25.4%; for `COc1cc2c(cc1OC)C(c1ccccc1)CC2=O` (configuration not stated) it is 14.2%; for `NC(=O)c1ccccc1NC(=O)c1ccoc1` it is -8.5%.
For `CCCC/C(=N\NC(=O)c1ccc(Br)o1)c1ccccc1`, the inhibition is -7.29%.
Regarding `COC(=O)C1CCN(C(=O)COC(=O)c2oc3ccc(OC)cc3c2C)CC1`, the inhibition was -0.54%.
The figure for `CC1CCCCN1CCCNC(=O)CN1C(=O)c2cccnc2Oc2ccccc21` (configuration not stated) is -0.24%; for `c1ccc(C2Oc3ccccc3C3CC(c4cccs4)=NN32)cc1` (configuration not stated) it is -7.12%; for `COc1cc(Cl)ccc1OCc1cc(C(=O)NC(C)Cc2cnccn2)no1` (configuration not stated) it is 6.35%.
The figure for `CSc1nc(SCC(=O)NCc2ccco2)c2c3c(sc2n1)CN(C)CC3` is 2.16%.
With `CCCCSc1nnc(-c2cc(Br)ccc2N)c(=O)[nH]1` the figure was 1.28%; with `CCc1cc(=O)[nH]c(SCc2cccnc2)n1`, -5.44%; with `CCOC(=O)c1c(NC(C)=O)sc(/C(C)=N/Nc2ccc(C(=O)O)cc2)c1C`, 22.2%.
As to `COc1ccc(C(=O)N(C)Cc2ccccn2)cc1OC1CCN(C(C)C)CC1`, the inhibition was -1.9%.
With `Nc1n[nH]c2c1C1(CCCCC1)Cc1ccccc1-2` the figure was 50.2%; with `CC1CCCC(C)N1C(=O)CN1CCN(c2nc(-c3ccc(F)cc3)cs2)CC1` (configuration not stated), 20.9%.
With `Cc1ccc(C)c(OCCC(=O)OCC(=O)N2CCN(c3ccccc3)CC2)c1` the figure was 14.1%.
Take `COc1ccc(NC(=O)CSc2nc(N)c(C(=O)Nc3ccc(N(C)C)cc3)s2)cc1`: the inhibition amounted to 15.8%.
With `O=C(c1ccc(Cl)cc1)N1CCN(C(=O)C2CCCCC2)CC1` the figure was 4.49%; with `Cc1cccc(-n2ncc3c2CCCC3NC(=O)CCCN2CCCCC2=O)c1C` (configuration not stated), -4.15%; with `CCCOc1ccc(C(=O)N/N=C/c2ccc(-c3ccc(S(=O)(=O)Nc4ncccn4)cc3)o2)cc1`, 7.99%.
With `CCCCOC(=O)Sc1nc2ccccc2o1` the figure was 0.14%; with `COC(=O)c1ccc(C(=O)N2CCCC(Nc3ccc(F)c(F)c3)C2)cc1` (configuration not stated), 6.31%.
With `O=C(NCCN1C(=O)C2C3C=CC(C3)C2C1=O)N1CCOCC1` (configuration not stated) the figure was 4.88%; with `CC1(c2cccs2)CC(c2cccs2)=C(C#N)C(=O)N1` (configuration not stated), -7.02%.
Regarding `Cc1[nH]c2ccccc2c1C(=O)COC(=O)Cn1c(C)nc2ccccc21`, the inhibition was 7.31%.
Regarding `O=C(c1cccc(F)c1)N1CCN(c2cc(N3CCCCC3)c(F)cc2[N+](=O)[O-])CC1`, the inhibition worked out at 63.5%.
The figure for `COc1ccc(S(=O)(=O)N(CC(=O)NC2CCCC2)c2ccccc2OC)cc1` is -4.51%.
With `O=S(=O)(Cc1cc(Cl)nc(-c2cccnc2)n1)c1ccccc1` the figure was 6.25%; with `Cc1ccc2nc(-c3ccncc3)cc(C(=O)N3CCOCC3)c2c1`, 5.53%.
The figure for `COc1ccc(NC(C)C(=O)N/N=C/c2ccc([N+](=O)[O-])s2)cc1` (configuration not stated) is 0.19%; for `CCS(=O)(=O)n1nc(C(=O)N2CCOCC2)nc1N` it is -3.73%.
As to `Cc1c(C(=O)Nc2nnc(SCc3ccccc3Cl)s2)cccc1[N+](=O)[O-]`, the inhibition came out at 2.18%.
With `O=[N+]([O-])c1ccccc1S(=O)(=O)Nc1ccn(Cc2c(F)cccc2Cl)n1` the figure was -0.51%.
With `Cc1c([N+](=O)[O-])cc(C(=O)N2CCOCC2)cc1[N+](=O)[O-]` the figure was -1.43%; with `Cc1ccn(CCC(=O)N2CCc3ccccc32)n1`, -4.55%; with `Cc1cccc(NC(=O)Nc2ccccc2[N+](=O)[O-])n1`, -7.42%.
With `Cc1ccc(NC(=O)/C(=C/c2ccc([N+](=O)[O-])cc2)NC(=O)c2ccccc2)cc1` the figure was 0.78%; with `CCCOc1ccc(-c2nc(N3CCN(CC)CC3)c3ccccc3n2)cc1`, 95.1%; with `COc1ccc(-n2c(N)cc(=O)nc2SCC(=O)N2CCN(c3ccccc3)CC2)cc1`, 4.25%.
`COC(=O)/C(=C\Nc1ccc(Cl)c2ccccc12)c1ncc(C(F)(F)F)cc1Cl`: the inhibition was 29.8%.
With `CCc1ccc(C(=O)COC(=O)c2ccccc2OC)cc1` the figure was 82.5%; with `COC1(c2cc(-c3ccccc3)nc(N)n2)CCCCC1`, 3.13%.
The figure for `COc1ccccc1OCc1nc(-c2ccc([N+](=O)[O-])cc2)no1` is 10.5%.
The figure for `CCOC(=O)c1c(C)[nH]c(C)c1C(=O)COC(=O)c1ccc(S(=O)(=O)N(CC)CC)cc1` is -5.9%.
Turning to `O=C(/C=C(\O)c1ccc(Cl)cc1)C(=O)NNC(=O)C(O)(c1ccccc1)c1ccccc1`, the inhibition is 38.1%.
With `O=C(COc1c(Br)cc(Br)c2cccnc12)N1CCc2ccccc2C1` the figure was 76.4%.
With `O=C(O)C1CCN(S(=O)(=O)Cc2ccccc2)CC1` the figure was -0.77%; with `O=C(NCc1nnc(SCC(=O)N2CCCC2)o1)c1ccc(F)cc1`, -1.8%.
With `COc1cc(OC)cc(C(=O)Nc2nnc(SCC(=O)NCc3ccco3)s2)c1` the figure was 9.03%; with `COc1ccccc1C/C(N)=N/OC(=O)COc1ccc(C)cc1C`, 1.5%; with `COc1ccc(NS(=O)(=O)NC(=O)c2c[nH]c3ccccc23)cc1`, 13.1%.
On to `O=C(CSc1ccccc1)Nc1ccc2c(c1)OCCO2`, for which the inhibition came to 31.4%.
For `COC(=O)[C@H](CC(C)C)NC(=O)N1CCN(c2cccc(C(F)(F)F)c2)CC1`, the inhibition worked out at 1.6%.
The figure for `CN(C)c1nc2ccccc2c(N)c1-c1ccccc1` is 4.05%.
The figure for `COc1ccc(NC(=O)Nc2cccc(C)n2)c(OC)c1` is 7.92%.
Consider `Cc1ccccc1C1CC(c2ccc(Br)cc2)Nc2nc(N)nn21` (configuration not stated), for which the inhibition is -2.71%.
With `CC(=O)Nc1cccc(C(=O)NC2CCCc3c2cnn3-c2cc(C)cc(C)c2)c1` (configuration not stated) the figure was 8.42%; with `CC(C)(C)c1ccc(C(=O)Oc2ccc3c(c2)OCC3=O)cc1`, 18%; with `CCOC(=O)N1CCN(S(=O)(=O)c2ccc3c4c(cccc24)C(=O)N3)CC1`, 3.9%.
Regarding `COc1ccc(S(=O)(=O)N2CCN=C2SCc2cccc(C)c2)cc1`, the inhibition stood at 13.1%.
With `COC(=O)[C@H](CC(C)C)NC(=O)Nc1ccc2c(c1)OCCO2` the figure was -7.13%; with `CCOC(=O)c1c(C)[nH]c(C(=O)OCc2ccccc2)c1C`, 10%.
The figure for `Cc1ccccc1NC(=O)/C(C#N)=C\c1cc(C)n(-c2ccc(C(=O)O)cc2)c1C` is 16.3%; for `CC(=O)C1=C(C)NC(SCC(=O)c2ccccc2)=C(C#N)C1CC(C)C` (configuration not stated) it is 42.6%; for `Cc1cc(SCc2cccc(C(F)(F)F)c2)nc(=O)[nH]1` it is -1.52%.
With `CNc1ccccc1C(=O)OC(C)C(=O)Nc1ccc(Cl)cn1` (configuration not stated) the figure was 97.7%; with `O=C(Oc1cccc2cccnc12)c1ccc(N2C(=O)C3C4CCC(C4)C3C2=O)cc1` (configuration not stated), 99.8%.
On to `Cc1cc(OCC(=O)Nc2ccc(N3CCN(C)CC3)cc2)ccc1Cl`, for which the inhibition is -20%.
The figure for `CCCCC(Sc1nc(N)c(NC(=O)c2ccco2)c(=O)[nH]1)C(=O)O` (configuration not stated) is 1.82%; for `O=C(CC1SC(=O)NC1=O)Oc1ccc(/C=N/NC(=O)c2ccccc2O)cc1` (configuration not stated) it is 1.45%; for `O=C(COc1ccc2ccccc2c1)N1c2ccccc2Sc2ccccc21` it is 3.76%.
In the case of `O=C(NC(NC(=S)Nc1c(Cl)cccc1Cl)C(Cl)(Cl)Cl)c1cccc([N+](=O)[O-])c1` (configuration not stated), the inhibition is 0.79%.
The figure for `COc1cc(Br)c(CC(=O)O)cc1OC` is -1.96%; for `CCn1cc(CN2CCC(n3nccc3NC(=O)c3cccc(F)c3)CC2)cn1` it is -2.97%; for `Cc1nn2c(N3CCOCC3)cc(C(C)(C)C)nc2c1-c1ccccc1` it is 0.23%.
The figure for `COc1ccc(C(=O)SC2=NCCS2)cc1OC` is 4.48%.
With `Cc1cc(=O)n2nc(N3CCC(C(=O)NC(C)c4ccccc4)CC3)sc2n1` (configuration not stated) the figure was -1.79%.
As to `O=C(CSc1nc2c([nH]c3ccccc32)c(=O)n1-c1ccccc1F)NCC1CCCO1` (configuration not stated), the inhibition is -1.74%.
The figure for `CCc1nc(N2CCN(CC(=O)NCC3CCCO3)CC2)c(C#N)c2c1COC(C)(C)C2` (configuration not stated) is -0.97%; for `CN(C(=O)COc1ccc(Cl)cc1Br)C1CCCCC1` it is -2.68%; for `CCCCCc1ccc(-c2ccc(/C=C/C(N)=O)cc2)nc1` it is 2.44%.
The figure for `CC(C)Cc1nnc(NC(=O)CSc2nc(O)c(-c3ccccc3)c(=O)[nH]2)s1` is 36.7%.
On to `COc1ccc(OC)c(C(=O)c2oc3ccccc3c2NC(C)=O)c1`, for which the inhibition was -10.6%.
With `O=C(CSc1nnc2n(C3CCCC3)c(=O)c3ccccc3n12)N1CCCCCC1` the figure was -5.42%; with `c1ccc(-c2nc(NC3CC3)nc(-n3ccnc3)n2)cc1`, 3.92%.

The record behind these values is PubChem BioAssay AID434955 (Southern Research Specialized Biocontainment Screening …, 2010).
